Reference: article PMC4336329 (PLoS ONE, 2015)
About 14,000 (4.5%) of roughly 310,000 compounds showed an effect of 50% or more. The effect is printed as a negative number. Some of the results follow.

The compounds below were run against human ether-à-go-go-related gene (hERG) potassium channel (human, UniProt Q12809) (assay: primary screen, population patch clamp on CHO cells stably expressing hERG).
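Also: peak tail current of the secondary pulse compared with the same well before compound.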

Chain of human ether-à-go-go-related gene (hERG) potassium channel (Q12809 whole entry, looked up): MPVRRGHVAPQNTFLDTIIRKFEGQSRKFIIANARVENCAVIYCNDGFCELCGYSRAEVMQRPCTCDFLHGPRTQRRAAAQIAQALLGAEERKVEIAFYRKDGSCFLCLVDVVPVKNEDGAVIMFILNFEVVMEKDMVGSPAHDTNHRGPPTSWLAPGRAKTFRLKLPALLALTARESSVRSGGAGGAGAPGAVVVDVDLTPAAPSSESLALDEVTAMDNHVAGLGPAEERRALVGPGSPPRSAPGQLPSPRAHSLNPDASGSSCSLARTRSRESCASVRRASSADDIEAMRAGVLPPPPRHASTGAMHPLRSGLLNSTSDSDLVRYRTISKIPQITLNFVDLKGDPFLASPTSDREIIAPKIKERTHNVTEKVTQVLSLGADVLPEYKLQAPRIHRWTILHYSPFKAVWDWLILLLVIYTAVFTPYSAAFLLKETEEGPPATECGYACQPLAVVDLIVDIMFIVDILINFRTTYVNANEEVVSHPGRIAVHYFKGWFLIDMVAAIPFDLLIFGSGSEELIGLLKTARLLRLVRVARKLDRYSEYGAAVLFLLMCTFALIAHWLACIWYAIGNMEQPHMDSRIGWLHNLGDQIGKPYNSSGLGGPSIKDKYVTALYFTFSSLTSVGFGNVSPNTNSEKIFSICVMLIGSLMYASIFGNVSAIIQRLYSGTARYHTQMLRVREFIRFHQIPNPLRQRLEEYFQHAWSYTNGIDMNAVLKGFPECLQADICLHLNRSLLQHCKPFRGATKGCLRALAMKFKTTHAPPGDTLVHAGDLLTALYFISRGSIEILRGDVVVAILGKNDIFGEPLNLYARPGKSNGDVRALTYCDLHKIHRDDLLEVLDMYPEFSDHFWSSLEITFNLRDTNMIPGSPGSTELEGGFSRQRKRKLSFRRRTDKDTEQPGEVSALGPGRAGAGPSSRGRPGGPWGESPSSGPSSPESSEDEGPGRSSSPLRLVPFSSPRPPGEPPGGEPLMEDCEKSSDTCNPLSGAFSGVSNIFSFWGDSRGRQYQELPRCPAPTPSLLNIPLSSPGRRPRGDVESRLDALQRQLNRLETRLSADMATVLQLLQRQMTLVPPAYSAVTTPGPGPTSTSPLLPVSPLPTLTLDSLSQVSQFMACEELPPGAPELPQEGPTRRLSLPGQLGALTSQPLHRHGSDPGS

Compound	hERG current change (%, negative = inhibition) at 10uM [%]
Cl.NCCCC[C@H](N)c1nnc([C@H](CCC(=O)O)NC(=O)C2CCNCC2)o1	11.6
C/C=C/C(=O)OCC(=O)Nc1cc(OC)c([N+](=O)[O-])cc1C	-17.6
CCOC(=O)c1cnc2c(-c3ccccc3)cnn2c1C	6.71
CC(NCC1COc2ccccc2O1)C1COc2ccccc2O1 (stereo not shown)	3.1
COc1ccc(C(=O)C2CCCN(C(=O)c3ccoc3C)C2)cc1F (stereo not shown)	-6.04
CC1CC(C)(C)NC(=S)N1CCCC(=O)Nc1ccc(Cl)cc1 (stereo not shown)	-13.6
CCOc1cc(N2CCOCC2)c(OCC)cc1NS(=O)(=O)c1ccc(Cl)s1	-0.532
O=C1C2CC=CCC2C(=O)N1c1ncn[nH]1 (stereo not shown)	13.6
O=c1cc(CSc2nnc(-c3ccccc3)o2)c2ccccc2[nH]1	11.9
COc1ccc(SCC(=O)c2cc(C)c(OC(=S)N(C)C)c(C)c2)cc1	12.7
COC(=O)c1c(C(=O)OC)c(-c2cccc(F)c2)n2c1CS(=O)(=O)C2	-16
C/C(=N/NC(=O)c1ccccn1)c1ccc(O)cc1	11.3
CCC(=NCc1ccco1)c1c(O)n(-c2ccccc2C)c(=O)[nH]c1=O	10.6
CCN(CC)CCNC(=O)c1cn(CCOC)c(=O)c2c1c1ccccc1n2C	0.745
O=C(COc1ccc2ccccc2c1Br)N1CCCCC1	-0.386
C=CCNC(=O)c1c(Br)cnn1-c1ccc(C)cc1	17.6
O=C(C1CCC1)N1CCC(O)(c2cccc(F)c2)CC1	14.6
CC(C)(C)C1=C(C#N)C(c2ccc3c(c2)OCO3)C(C#N)=C(N)O1 (stereo not shown)	-18.2
Cc1cccc(C(=O)OCC(=O)N(CC(C)C)c2c(N)n(Cc3ccccc3)c(=O)[nH]c2=O)c1O	10.9
COc1ccc(/C(O)=C/C(=O)C(=O)Nc2c(C)n(C)n(-c3ccccc3)c2=O)cc1	8.01
CCc1noc(C)c1C(=O)Nc1cccc(S(=O)(=O)N2CCCCCC2)c1	-56
N/C(=N\OS(=O)(=O)c1ccc2ccccc2c1)c1cccnc1	5.24

Compound	hERG current change (%, negative = inhibition) at 10uM [%]
CC(=O)N1CC=CC1(CC(C)C)C(=O)NCCN1CCOCC1 (stereo not shown)	23.6
CCN(CC(=O)NC1CCS(=O)(=O)C1)S(=O)(=O)c1ccccc1Cl (stereo not shown)	-0.0308
N/C(=N\OC(=O)Cc1ccccc1)c1ccccc1Cl	10.8
Nc1ncnc2nc(SCC(=O)Nc3cccc(C(F)(F)F)c3)[nH]c12	-8.98
CCOc1ccc(C(=O)NC(=S)Nc2ccc(N3CCOCC3)c(Cl)c2)cc1[N+](=O)[O-]	2.8
Cc1cccc(Cc2c(C)nc3c(C(=O)N4CCN(Cc5ccc6c(c5)OCO6)CC4)cnn3c2C)c1	-27.4
Cc1nc(-c2cccc(NC(=O)COc3ccc(Cl)cc3)c2)cs1	-6.02
FC(F)Oc1ccc(/C=N/N2CCCCC2)c(OC(F)F)c1	-20.6
NCCCC[C@@H](C(=O)N1CCNCC1)n1cc(CN)nn1	7.95
COc1ccc(C2(C#N)CC[N+](C)(C)CC2)cc1.[Br-]	1.7
Cc1ccc(C(=O)C(OC(=O)CNS(=O)(=O)c2ccccc2)c2ccccc2)cc1 (stereo not shown)	3.06
O=C(COC(=O)c1nc(Cl)ccc1Cl)NC1CCS(=O)(=O)C1 (stereo not shown)	15.6
CC(C)(C)CC(C)(C)NCC(O)COc1ccc2c(c1)CCC2.Cl (stereo not shown)	-20.2
CCOC(=O)Cn1c(CN2CCN(c3cccc(Cl)c3)CC2)nc2c1c(=O)[nH]c(=O)n2C	-31.9
CCOCCCNC(=S)Nc1cc(OCC)c(NC(=O)c2ccco2)cc1OCC	12.3
COCCn1c(N2CCN(c3ccc(OC)cc3)CC2)nc2c1c(=O)n(C)c(=O)n2C	-0.941
CCC(=O)NC(NC(=O)CC)C(Cl)Cl	9.89
CC(c1cccs1)N(Cc1ccco1)C(=O)Nc1ccc(Cl)c(Cl)c1 (stereo not shown)	-0.32
CCCCOC(=O)Nc1nnc(C(C)C)s1	17.3
O=C(Cn1cnc([N+](=O)[O-])c1)c1ccc(F)cc1	6.88
CCCC[n+]1ccn(C2=C([O-])c3ccccc3C(=O)/C2=N\S(=O)(=O)c2ccc(Cl)cc2)c1	-17.8
CC1CCC(NC(=O)CCCn2sc3ccccc3c2=O)CC1 (stereo not shown)	15.4

Compound	hERG current change (%, negative = inhibition) at 10uM [%]
CC(NC(=O)c1cc2ccccc2oc1=O)c1ccccc1 (stereo not shown)	-8.03
CCCC1(c2ccccc2)NC(=O)N(CC(=O)NCC2COc3ccccc3O2)C1=O (stereo not shown)	-8.57
Cc1nn(-c2ccccc2)c(C)c1/C=N/n1c(-c2ccc(C(C)(C)C)cc2)n[nH]c1=S	14.9
COc1ccc(NC(=O)C2CCCN(C(=O)c3ccc(Cl)cc3)C2)cc1Cl (stereo not shown)	-2.32
O=C(NS(=O)(=O)c1ccccc1[N+](=O)[O-])c1ccccc1	9.38
Cc1cc(C)c(NC(=O)C(C)OC(=O)c2cc(Br)c(Br)s2)c(C)c1 (stereo not shown)	12.9
Cc1ccc(/C=N/Nc2nc3ccccc3[nH]2)s1	-22.9
COc1ccc(S(=O)(=O)NCc2ccncc2)cc1NC(=O)c1ccc(Cl)cc1	-67.4
O=c1cc(CO)oc(C(Nc2cccc([N+](=O)[O-])c2)c2ccccn2)c1O (stereo not shown)	-18.4
Cc1ccc(N(CC(=O)NC2CCCCC2)C(=O)c2ccc(C)s2)cc1	-11.2
Cc1cc(C)n(-c2ccccc2C#N)n1	5.3
CCOC(=O)Cn1c(S(=O)(=O)Cc2ccccc2Cl)nc(-c2ccccc2)c1-c1ccccc1	-6.2
CC(C)(C)Nc1nc2ccc([N+](=O)[O-])cc2o1	-11.7
CCC(=O)Nc1cc2c3c(c1)CCC(=O)N3CCC2	1.44
O=C(NCc1ccco1)c1sc2cc(F)ccc2c1Cl	-6.31
COc1ccccc1NC(=O)c1ccc(NC(=O)c2cc3c(s2)CCC3)cc1	18.1
O=C(Cc1ccccc1)NNC1CC(=O)N(c2ccc(Br)cc2)C1=O (stereo not shown)	19.3
O=C(Cc1ccc(Cl)cc1)Nc1nc2ccccc2[nH]1	-3.81
O=C(COC(=O)c1cccnc1Cl)NCc1cccs1	1.71
CCCOc1ccc(N2C(=O)CC(N(CCc3ccc(OC)cc3)C(=O)c3cccc(F)c3)C2=O)cc1 (stereo not shown)	-8.44
COc1ccc(CC(=O)Nc2ccc3c(c2)C(=O)N(CCC(=O)O)C3=O)cc1	11.7
O=C(NCc1ccccn1)c1ccc(OC2CCN(Cc3cccs3)CC2)cc1	-11.9

Compound	hERG current change (%, negative = inhibition) at 10uM [%]
COc1ccc2ccccc2c1/C=N/NC(=O)c1sc(N)c(C#N)c1C	-15.7
O=C(O)CCCn1cc(NC(=O)COc2cccc(Cl)c2)cn1	14.5
Cc1cc(C(=O)O)ccc1[N+](=O)[O-]	15.6
CCOc1ccc(N=C(C)c2ccccc2O)cc1	14.3
Cn1c(Cn2c(=O)sc3ccccc32)nnc1SCC(=O)Nc1ccccc1	-2.13
Cc1ccc(OCCSc2nnc(-c3ccncc3)n2C)cc1	-28.9
COc1ccc(OC)c(C(=O)c2ccc(C(=O)N3CCCCC3)cc2)c1	-5.97
COc1cccc(CNC(=S)Nc2ccc(Cl)cc2C)c1	-1.41
COc1ccc(CN(C)C(=S)Nc2ccc(OC(F)F)cc2)cc1	-58.9
CN(C)c1ccc(NC(=O)COC(=O)CCC(=O)c2ccc(F)cc2)cc1	-18.4
Cc1ccc(C(=O)NC(=S)Nc2ccc(NC(=O)c3cccs3)cc2)cc1[N+](=O)[O-]	5.05
CC(C)CN(CC(C)C)C(=O)COn1nnc2ccc(S(=O)(=O)N3CCOCC3)cc21	-34.8
CCOc1cc(/C=N/NC(=O)c2cc(-c3cccc(OC)c3)nc3ccccc23)ccc1O	5.53
Cc1ccc(NC2Sc3ccccc3NC2=O)cc1Cl (stereo not shown)	5.18
COc1cc(/C=C2\C(=N)N3N=C(C(C)C)SC3=NC2=O)ccc1OCCOc1ccc(NC(C)=O)cc1	7.55
CCOc1ccc(NC(=O)NC2CCCCCCC2)cc1	10.9
CN(C)c1ccc(C(=O)OCC(=O)Nc2ccc(N3CCOCC3)cc2)cc1	5.99
COc1ccc(-n2c(SCC(=O)N3CCOCC3)nc3ccccc3c2=O)cc1	15.2
Cc1nnc(SCC(=O)Nc2nccs2)n(N)c1=O	19.4
CCCc1nc(SCC(=O)N2CCc3ccccc32)c2c(C)c(C)sc2n1	17.4
CCC(C)(C)NC(=O)C(C(C)C)N(CC1CCCO1)C(=O)CNS(=O)(=O)c1ccc(F)cc1 (stereo not shown)	-5.41
COc1cc(CN2CCC(Cc3ccccc3)CC2)c([N+](=O)[O-])cc1OC	0.589
